The values below are quoted from earlier work in paper PMC11006913.

Holding throughout (conditions): PBM; conditions not shown; double strand, one strand shown; scale: upbm affinity estimate (log intensity, higher = more binding, comparable within an allelic series)
The target of data set [1] is PITX2 L100Q (Homo sapiens) (UniProt Q99697).
Data set [2] concerns the target PITX2 R108H (Homo sapiens) (UniProt Q99697).
Data set [3] deals with PITX2 R130W (Homo sapiens) (UniProt Q99697).
Data set [4] concerns the target PITX2 T114P (Homo sapiens) (UniProt Q99697).
Data set [5] concerns the target PROP1 R112Q (Homo sapiens) (UniProt O75360).
Data set [6] addresses PROP1 R99Q (Homo sapiens) (UniProt O75360).

The list shows a part of the results.

GCGCACCC [8-mer GCGCACCC]: the binding signal in data set [1] is 8; in data set [2], 8.04; in data set [3], 7.96; in data set [4], 8.04.

Take CCGGATTA [8-mer CCGGATTA]: the binding signal in data set [1] is 11.3; in data set [2], 9.53; in data set [3], 8.37; in data set [4], 9.93.

For the sequence TAAGATTA [8-mer TAAGATTA], the binding signal was 10.8 in data set [1], 9.09 in data set [2], 8.5 in data set [3] and 9.24 in data set [4].

Take CGGGCCGC [8-mer CGGGCCGC]: the binding signal was 7.96 in data set [1], 7.89 in data set [2], 7.68 in data set [3] and 7.9 in data set [4].

For CGCTCCGC [8-mer CGCTCCGC], the binding signal is 8.38 in data set [1], 8.05 in data set [2], 7.86 in data set [3] and 8.06 in data set [4].

Take AAAGATTA [8-mer AAAGATTA]: the binding signal in data set [1] was 10.9; in data set [2], 9.33; in data set [3], 8.8; in data set [4], 9.36.

For CGGGACCA [8-mer CGGGACCA], the binding signal in data set [1] is 8.26; in data set [2] it was 8.08; in data set [3], 8.01; in data set [4] it was 8.1.

As to CGACAGGC [8-mer CGACAGGC], the binding signal in data set [1] was 8.31; in data set [2], 8.15; in data set [3], 8.03; in data set [4] it was 8.1.

With ATAAATCC [8-mer ATAAATCC], the binding signal in data set [1] is 10.8; in data set [2] it was 9.08; in data set [3], 8.61; in data set [4], 9.41.

GGATTACC [8-mer GGATTACC]: the binding signal in data set [1] was 11.2; in data set [2] it was 9.3; in data set [3] it was 8.46; in data set [4], 9.7.

As to GCGTCTCC [8-mer GCGTCTCC], the binding signal in data set [1] was 8.27; in data set [2] it was 8.27; in data set [3], 8.19; in data set [4], 8.28.

ATAATCCC [8-mer ATAATCCC]: the binding signal in data set [1] was 11.5; in data set [2], 9.76; in data set [3] it was 8.49; in data set [4], 10.2.

For the sequence GGCCCCCC [8-mer GGCCCCCC], the binding signal in data set [1] was 8.05; in data set [2], 7.76; in data set [3] it was 7.5; in data set [4], 7.76.

For the sequence GATTAATC [8-mer GATTAATC], the binding signal in data set [1] was 11.5; in data set [2], 9.8; in data set [3], 8.75; in data set [4], 9.96.

For the sequence GTGATTAA [8-mer GTGATTAA], the binding signal in data set [1] is 10.9; in data set [2], 9.28; in data set [3], 8.77; in data set [4], 9.49.

In the case of GGACCGAC [8-mer GGACCGAC], the binding signal in data set [1] is 8.33; in data set [2] it was 8.17; in data set [3], 8; in data set [4] it was 8.11.

As to AGATTAAA [8-mer AGATTAAA], the binding signal in data set [1] is 11; in data set [2] it was 9.34; in data set [3], 8.76; in data set [4], 9.54.

Consider AGATTAAT [8-mer AGATTAAT], for which the binding signal in data set [1] was 11.1; in data set [2], 9.54; in data set [3], 8.71; in data set [4] it was 9.71.

CGAGTGCG [8-mer CGAGTGCG]: the binding signal was 8.17 in data set [1], 8.32 in data set [2], 8.4 in data set [3] and 8.19 in data set [4].

Turning to CGACGGCG [8-mer CGACGGCG], the binding signal in data set [1] is 8.1; in data set [2] it was 8.1; in data set [3] it was 7.99; in data set [4], 8.12.

As to GCGGATTA [8-mer GCGGATTA], the binding signal in data set [1] is 11.3; in data set [2], 9.43; in data set [3] it was 8.4; in data set [4] it was 9.8.

For CACCGGGG [8-mer CACCGGGG], the binding signal in data set [1] is 8.01; in data set [2], 7.88; in data set [3], 7.75; in data set [4] it was 7.92.

As for GGATTTAA [8-mer GGATTTAA], the binding signal in data set [1] was 10.8; in data set [2], 9.17; in data set [3] it was 8.65; in data set [4], 9.46.

On to GTGGATTA [8-mer GTGGATTA], for which the binding signal in data set [1] was 11.4; in data set [2] it was 9.51; in data set [3], 8.6; in data set [4], 9.84.

Take CAGGCCCG [8-mer CAGGCCCG]: the binding signal is 7.98 in data set [1], 7.84 in data set [2], 7.74 in data set [3] and 7.88 in data set [4].

As for ACTTAATC [8-mer ACTTAATC], the binding signal was 10.9 in data set [1], 9.35 in data set [2], 8.66 in data set [3] and 9.57 in data set [4].

In the case of AGATTAAG [8-mer AGATTAAG], the binding signal in data set [1] was 11.1; in data set [2] it was 9.38; in data set [3], 8.65; in data set [4], 9.57.

Turning to GAGGATTA [8-mer GAGGATTA], the binding signal in data set [1] is 11.6; in data set [2] it was 9.8; in data set [3] it was 8.62; in data set [4] it was 10.3.

Take AGATTCAT [8-mer AGATTCAT]: the binding signal in data set [1] was 9.12; in data set [2], 8.64; in data set [3] it was 8.61; in data set [4] it was 8.63.

Consider GGATTAGA [8-mer GGATTAGA], for which the binding signal in data set [1] is 11.4; in data set [2], 9.53; in data set [3], 8.55; in data set [4] it was 10.1.

For GCTAATCC [8-mer GCTAATCC], the binding signal in data set [1] was 11.5; in data set [2], 9.55; in data set [3] it was 8.3; in data set [4], 10.1.

For CCTACCGC [8-mer CCTACCGC], the binding signal was 8.28 in data set [1], 8.1 in data set [2], 7.94 in data set [3] and 8.13 in data set [4].

In the case of GCACGCCA [8-mer GCACGCCA], the binding signal was 8.17 in data set [1], 8.06 in data set [2], 8 in data set [3] and 8.12 in data set [4].

Consider CCGGTACC [8-mer CCGGTACC], for which the binding signal in data set [1] is 8.21; in data set [2] it was 8.09; in data set [3], 8; in data set [4], 8.2.

Take TAGATTAA [8-mer TAGATTAA]: the binding signal in data set [1] was 10.9; in data set [2] it was 9.33; in data set [3], 8.71; in data set [4], 9.46.

Take GGTTTAAC [8-mer GGTTTAAC]: the binding signal in data set [1] was 10.1; in data set [2] it was 8.69; in data set [3], 8.53; in data set [4], 8.82.

Turning to GGGGATTA [8-mer GGGGATTA], the binding signal is 11.8 in data set [1], 9.76 in data set [2], 8.36 in data set [3] and 10.4 in data set [4].

Consider TAATCCTA [8-mer TAATCCTA], for which the binding signal in data set [1] was 11.4; in data set [2] it was 9.48; in data set [3], 8.65; in data set [4], 9.96.

As for GGCCGGAC [8-mer GGCCGGAC], the binding signal is 8.31 in data set [1], 7.99 in data set [2], 7.9 in data set [3] and 8.1 in data set [4].

ACCACGCC [8-mer ACCACGCC]: the binding signal was 8.16 in data set [1]; 8.29 in data set [2]; 8.1 in data set [3]; 8.29 in data set [4]; 11 in data set [5]; 11 in data set [6].

Take ATTAGCCG [8-mer ATTAGCCG]: the binding signal in data set [1] was 9.57; in data set [2], 8.59; in data set [3] it was 8.46; in data set [4], 8.67.

For AATAATCT [8-mer AATAATCT], the binding signal in data set [1] is 10.9; in data set [2] it was 9.34; in data set [3], 8.84; in data set [4], 9.41.

Regarding ACGGGTCC [8-mer ACGGGTCC], the binding signal in data set [1] is 8.1; in data set [2], 8.14; in data set [3] it was 8.04; in data set [4], 8.13.
